Experimental data as given in PubChem BioAssay AID504832 (National Center for Advancing Translational Sciences (NCATS), 2011).
The campaign covered roughly 310,000 compounds. About 18,000 (5.8%) were called active. The inconclusive results got no clear call from the source; some entries with a clear call stand among them for comparison. The call rests on the fitted dose curve; in most records, active means well fitted inhibition curve with a large enough effect; inconclusive means small, poorly fitted or top-dose-only effect, or another doubt; inactive means no such curve, though single readings can be large or run the other way. Potencies of inconclusive entries are left out as doubtful fits.

Test: Primary qHTS for delayed death inhibitors of the malarial parasite plastid, 48 hour incubation
Settings: P. falciparum luciferase growth in erythrocytes; series mostly up to 28.7 µM
Method in brief: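 Luciferase-expressing P. falciparum in infected erythrocytes (2% hematocrit, 0.1% parasitemia final) in RPMI 1640/0.5% Albumax were exposed to compound for 48 hours at 37 C, 5% CO2; growth read as luminescence.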
Potency means the concentration at half of the fitted maximal effect; tags describe the fitted curve by direction and shape.

| Compound | Potency |
| --- | --- |
| Cc1cc(NC(=O)c2cccc3c2C(=O)N(C2CCCCC2)C3)ccc1Br | inconclusive [inhibitor, single point] |
| COC(=O)c1ccccc1CSc1nsc(/C=C/N(C)C)c1C#N | inconclusive [inhibitor, partial curve, poor fit] |
| COCCNC(=O)NC(=O)CN1C(=O)NC(Cc2c[nH]c3ccccc23)C1=O (stereo not given) | inactive |
| COc1ccc(C(CNC(=O)C(C)c2ccc3cc(OC)ccc3c2)N(C)C)cc1 (stereo not given) | inconclusive [inhibitor, partial curve] |
| CCOc1ccccc1CNC(=O)Cn1ccc2cc(S(=O)(=O)N3CCCC3)ccc21 | inconclusive [inhibitor, single point] |
| COc1ccc(-c2c3c(=O)n(C)c(=O)n(C)c3cn2-c2cccc(OC)c2)cc1 | active: 11.7 µM |
| CCCCn1c(N)c(N(CC(C)C)C(=O)CCCn2c(=O)oc3ccccc32)c(=O)[nH]c1=O | inconclusive [inhibitor, single point] |
| COCCn1cnc2c1c(=O)n(Cc1c(F)cccc1Cl)c(=O)n2Cc1ccccc1 | inconclusive [inhibitor, partial curve, poor fit] |
| COc1ccc(OCc2cc(C(=O)N(C)CC3CCCCO3)no2)c(Cl)c1 (stereo not given) | inactive |
| COC(=O)C1=C(Nc2ccccc2NS(=O)(=O)c2ccc(C(F)(F)F)cc2Cl)CSC1 | inactive |
| COc1ccc(C(=O)Cn2nnc(-c3ccccc3NC(=O)c3ccco3)n2)cc1 | active: 8.28 µM |
| Cc1ccc2c(c1)C1CN(C)CCC1N2C(=O)c1cccs1 (stereo not given) | inconclusive [inhibitor, single point] |
| Cc1cccc(C)c1NC(=O)C1c2cccc[n+]2CC(=O)N1Cc1cccs1 (stereo not given) | inactive |
| CN(C)C(=O)Nc1cccc(OC(=O)N(C)C)c1 | inactive |
| CN(Cc1ccccc1)C(=O)c1ccc2c(c1)OCCO2 | inactive |
| COc1ccccc1N(CC(=O)NCCSCc1ccccc1)S(=O)(=O)c1ccc(C)cc1 | inconclusive [inhibitor, partial curve, poor fit] |
| CCCC(=O)Nc1nc(C)c(-c2csc(Nc3ccccc3C)n2)s1 | active: 11.7 µM |
| CCOc1ccccc1NC(=S)N(Cc1cc2ccc(C)cc2[nH]c1=O)CC1CCCN1CC (stereo not given) | inconclusive [inhibitor, single point] |
| O=C(COC(=O)c1ccc2c(c1)S(=O)(=O)c1ccccc1C2=O)NC1CC1 | inconclusive [inhibitor, partial curve, poor fit] |
| COc1cccc(OCCNC(=O)c2ccc(C)cc2)c1 | inactive |
| O=c1cc(N2CCN(c3ccccc3)CC2)[nH]c(=O)n1C1CCCCC1 | inconclusive [inhibitor, single point] |
| COc1ccc(/C=N/NC(=O)c2ccc(CSc3nc(C)cc(C)n3)cc2)cc1O | inconclusive [inhibitor, partial curve, poor fit] |
| Cc1cc(C)c(NC(=O)Cn2nnc(C(=O)NCc3ccc4c(c3)OCO4)c2N)c(C)c1 | inactive |
| COC(=O)c1ccccc1NC(=O)Cc1nc(-c2ccccc2)sc1-c1ccc(C)cc1 | inconclusive [inhibitor, single point] |

| Compound | Potency |
| --- | --- |
| CC(C)(C)NC(=O)C(c1cccs1)N(Cc1ccc(F)cc1)C(=O)c1csnn1 (stereo not given) | active: 9.28 µM |
| CCOC(=O)CSc1nc(Nc2ccc3c(c2)OCO3)c2ccccc2n1 | active: 8.28 µM |
| N=c1c2c(n(Cc3ccc([N+](=O)[O-])cc3)c3c1CCC3)CCCC2 | inconclusive [inhibitor, partial curve] |
| COc1ccc(N2CC(C(=O)Nc3cccc(OC(C)C)c3)CC2=O)cc1 (stereo not given) | inactive |
| COc1ccc(Nc2ccc3nnc(-c4ccc(Br)cc4)n3n2)cc1 | inconclusive [inhibitor, single point] |
| CN1Cc2c(N3CCOCC3)nc(SCc3ccccc3)c(C#N)c2CC1(C)C | inactive |
| O=S(=O)(Nc1cccnc1)c1ccc(F)cc1 | inconclusive [inhibitor, full curve, poor fit] |
| CCc1ccc(C2NC(=S)NC3=C2C(=O)CCC3)cc1 (stereo not given) | inconclusive [inhibitor, partial curve, poor fit] |
| O=C(COC(=O)c1ccc2ccccc2n1)NC1CCCCC1 | inconclusive [inhibitor, partial curve, poor fit] |
| Cc1cc(CN2CCCC(CO)(Cc3cccc(Cl)c3)C2)n[nH]1 (stereo not given) | inconclusive [inhibitor, full curve, poor fit] |
| CC(C)(C)NCC(O)COc1cccc2c1CCC(=O)N2 (stereo not given) | inactive |
| Cc1ccc(/C=N/NC(=O)CN2CCN(Cc3ccccc3Cl)CC2)o1 | inactive |
| O=C(Cc1ccccn1)c1ccccc1 | inconclusive [inhibitor, single point] |
| Cc1cc(=O)oc2cc(OCCCC[n+]3ccccc3)ccc12 | active: 5.22 µM |
| Cc1onc(-c2ccccc2Cl)c1C(=O)N1CCOC12CCN(c1cccc(F)n1)CC2 | inconclusive [inhibitor, single point] |
| C=CCn1c(SCC(=O)NCCCC)nc2scc(-c3ccco3)c2c1=O | active: 13.1 µM |
| CC1CCCCC1NC(=O)C1CCC(CNS(=O)(=O)c2ccccc2)CC1 (stereo not given) | inactive |
| C[C@H]1CN=C(Nc2ccccc2)N1CCc1ccc(F)cc1 | inconclusive [inhibitor, single point] |
| CC1CCCN(C(=S)NCc2ccccc2)C1 (stereo not given) | inactive |
| COc1cc(/C=C/C(=O)OCC(=O)NC(=O)NC(C)(C)C)ccc1O | inconclusive [inhibitor, partial curve, poor fit] |
| Nc1ccc(-c2nc3ncccc3o2)cc1 | inactive |
| Cc1ccccc1-c1nc(CN2CCC(C(=O)NC3CC3)CC2)c(C)o1 | inconclusive [inhibitor, single point] |
| CN1Cc2c(N3CCOCC3)nc3sc(C#N)c(N)c3c2CC1(C)C | inconclusive [inhibitor, partial curve] |
| NS(=O)(=O)c1ccc(CCNC(=O)CCNS(=O)(=O)c2ccccc2C(F)(F)F)cc1 | inconclusive [inhibitor, partial curve, poor fit] |

| Compound | Potency |
| --- | --- |
| N#C/C(=C(/O)COC(=O)CSc1ccc(Cl)cc1)c1nc2ccccc2[nH]1 | inactive |
| CC(SCc1ccccc1)C(=O)Nc1ccc(F)cc1 (stereo not given) | inconclusive [inhibitor, partial curve, poor fit] |
| COC(=O)COc1ccc(S(=O)(=O)Nc2ccccc2C(=O)OC)cc1 | inactive |
| Cc1cccc(C)c1NC(=O)NN=C1CCCCC1 | inactive |
| COC(=O)c1[nH]c2ccc(Br)cc2c1NC(=O)C(C)N1CCN(C2CCCCC2)CC1 (stereo not given) | inconclusive [inhibitor, full curve] |
| CCOc1ccc(C2CC(c3ccc(OC)cc3)n3ncnc3N2)cc1 (stereo not given) | inconclusive [inhibitor, partial curve, poor fit] |
| CC(C)Cn1cc(C(=O)NCCCN2CCCC2=O)c2c3ccccc3n(C)c2c1=O | inconclusive [inhibitor, partial curve, poor fit] |
| CCCCn1c(N)c(N(CC(C)C)C(=O)c2oc3ccc(OC)cc3c2C)c(=O)[nH]c1=O | inconclusive [inhibitor, single point] |
| O=C(N/N=C/c1ccccc1)c1ccc(N2CCOCC2)c([N+](=O)[O-])c1 | inactive |
| CC(OC(=O)c1ccc(Cl)cc1)C(=O)NCc1ccc2c(c1)OCO2 (stereo not given) | inconclusive [inhibitor, single point] |
| O=C(COC(=O)c1ccccc1)c1ccc(Br)cc1 | inactive |
| COc1ccc(NC(=O)CN2CCN(S(=O)(=O)c3cccs3)CC2)cc1Cl | inconclusive [inhibitor, single point] |
| COC(=O)C1=C(c2ccc(-c3ccccc3)c(F)c2)C[C@@H]2CC[C@H]1N2C(=O)NCCOc1ccccc1 | active: 3.29 µM |
| COc1cc(/C=C2/NC(=O)N(CC(=O)Nc3cccc(C)c3)C2=O)ccc1OCC(N)=O | inconclusive [inhibitor, partial curve] |
| CCOc1ccc(NC(=O)CSc2nccn2Cc2ccco2)cc1 | inconclusive [inhibitor, partial curve, poor fit] |
| CCc1cccc2c1NC1(CCCC1)CC2C (stereo not given) | inconclusive [inhibitor, single point] |
| COCCCNC(=O)c1ccccc1N(Cc1ccccc1)S(=O)(=O)c1ccc(OC)cc1 | inconclusive [inhibitor, partial curve, poor fit] |
| O=C(Nc1cccc([N+](=O)[O-])c1)c1cc(S(=O)(=O)Nc2ccccn2)ccc1Cl | inactive |
| Cc1ccc(NS(=O)(=O)c2c(C(=O)N3CCOCC3)c(C)n(C)c2C)cc1C | inactive |
| CCOc1ncccc1C(=O)Oc1ccc2c(c1)OCO2 | inconclusive [inhibitor, partial curve, poor fit] |
| CCn1c(C)cc(O)c(C(=O)Nc2cccc(Cl)c2)c1=O | inconclusive [inhibitor, partial curve, poor fit] |
| O=C(O)CCCCCN1C(=O)/C(=C\c2ccncc2)SC1=S | inconclusive [inhibitor, partial curve, poor fit] |
